Measured values reported in PubChem BioAssay AID1159614 (National Center for Advancing Translational Sciences (NCATS), 2016).
About 65 (0.1%) of roughly 45,000 compounds were called active. The call rests on the fitted dose curve; in most records, active means well fitted activation curve with a large enough effect; inconclusive means small, poorly fitted or top-dose-only effect; inactive means no such curve, though single readings can be large or run the other way. The list shows a part of the results.

target: Galactocerebrosidase (Homo sapiens) (UniProt P54803); assay: A Novel Cell-Based Assay to Identify Small Molecules for B -Galactocerebrosidase; conditions: 145M-Twi-hGALC-G270D cells (Twitcher mouse brain line with human GALC G270D), HMU-beta-Gal fluorescence, 48 h; series mostly up to 57.5 µM; activation: at the top concentration; further: 0% is about no effect; nearly all actives have a fitted effect of over 65% in size
Chain of UniProt P54803 (P54803 whole entry, looked up): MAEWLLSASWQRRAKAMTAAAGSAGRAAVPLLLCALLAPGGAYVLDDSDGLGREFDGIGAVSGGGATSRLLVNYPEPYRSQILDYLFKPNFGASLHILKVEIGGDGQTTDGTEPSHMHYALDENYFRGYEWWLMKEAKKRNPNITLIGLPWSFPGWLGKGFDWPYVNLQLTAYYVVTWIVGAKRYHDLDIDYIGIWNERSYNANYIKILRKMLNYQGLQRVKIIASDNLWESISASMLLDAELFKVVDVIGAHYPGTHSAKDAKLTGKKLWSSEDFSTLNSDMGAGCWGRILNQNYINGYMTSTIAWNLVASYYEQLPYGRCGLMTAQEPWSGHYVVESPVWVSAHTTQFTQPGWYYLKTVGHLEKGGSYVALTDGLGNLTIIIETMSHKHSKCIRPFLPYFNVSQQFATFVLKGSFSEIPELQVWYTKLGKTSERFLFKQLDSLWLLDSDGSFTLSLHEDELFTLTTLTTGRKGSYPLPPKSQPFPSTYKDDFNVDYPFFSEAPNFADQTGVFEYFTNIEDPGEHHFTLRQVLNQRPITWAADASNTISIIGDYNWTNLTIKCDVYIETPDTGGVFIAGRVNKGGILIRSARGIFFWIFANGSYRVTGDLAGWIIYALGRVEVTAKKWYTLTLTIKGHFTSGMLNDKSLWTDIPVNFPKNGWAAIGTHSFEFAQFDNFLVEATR
In short: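 Fluorogenic HMU-b-Gal hydrolysis (0.1 mM final, pH 5.2 citrate-phosphate with 1 mg/mL sodium taurocholate; carbonate stop buffer) measures mutant GALC activity after compound treatment of live 145M-Twi Twitcher brain cells stably carrying human GALC-G270D, with wild-type GALC line alongside; activation sought.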

SMILES | activation
O=C(c1ccc2c(c1)N(Cc1ccc(Cl)cc1)C(=O)c1ccccc1S2(=O)=O)N1CCc2ccccc21 | inactive: 11%
Cc1ccc(-c2nnc(Nc3cccc(Br)c3)c3ccccc23)cc1S(=O)(=O)NCC1CCCO1 (configuration not stated) | inactive: -7.83%
O=C(NCc1ccc(F)cc1)C(=O)NCC(c1ccco1)S(=O)(=O)c1cccs1 (configuration not stated) | inactive: -26.8%
COc1ccccc1N1CCN(S(=O)(=O)c2c(C)sc3ncn(CC(=O)NCCN(C)C)c(=O)c23)CC1 | inactive: -22.8%
O=C(NCCC1=CCCCC1)c1ccc2c(c1)N(Cc1ccc(Cl)cc1)C(=O)c1ccccc1S2(=O)=O | inactive: -0.957%
CCc1ccc(N2C(=O)N(CC(=O)C(C)(C)C)c3ccccc3S2(=O)=O)cc1 | inactive: -3.05%
COc1ccc(OC)c(NC(=O)CSC2=Nc3ccccc3C3=NC(CCC(=O)NCCc4ccccc4)C(=O)N23)c1 (configuration not stated) | inactive: -4.76%
CCOc1ccc(NC(=O)CCn2nc(C)c(S(=O)(=O)N3CCCCC3)c2C)cc1 | inactive: -2.25%
Cc1nnc(NCc2ccc(F)cc2)c2c1nnn2Cc1ccccc1Cl | inactive: -21.2%
Cc1c(Cl)cccc1NC(=O)Cn1cnc(S(=O)(=O)N2CCCC2)c1 | inactive: -7.12%
COc1ccc(CCNC(=O)Cn2nc(C)c3c(C)n(-c4ccc(C)cc4)nc3c2=O)c(OC)c1 | inactive: -30.1%
COc1ccc(NC(=O)CC2C(=O)N(c3ccc(C)cc3)C(=O)N2Cc2ccc(C)cc2)cc1 (configuration not stated) | inactive: -16.6%
CCC(C(=O)N1CCN(c2ccc(OC)cc2)CC1)n1nc(C)n2c(cc3occc32)c1=O (configuration not stated) | inactive: -16.6%
Nc1ccc(S(=O)(=O)NC2(C(F)(F)F)NC(=O)N(c3cccc(Cl)c3)C2=O)cc1 (configuration not stated) | inactive: -22.3%
CCN(CC)CCCNC(=O)c1nn(-c2ccc(OC)cc2)c(=O)c2c1c1ccccc1n2C | inactive: 4.14%
O=c1c2ccccc2nc(N2CCN(c3cccc(Cl)c3)CC2)n1-c1ccccc1 | inactive: -2.89%
O=C(Nc1ccccc1C(F)(F)F)N1CCC2(CC1)Oc1ccccc1C(=O)N2Cc1ccccc1F | inactive: -13.8%
CCOC(=O)c1c(C)oc2nc(C)nc(NCc3ccc(OC)cc3)c12 | inactive: -4.11%
COCCNC(=O)c1ccc2c(c1)N(Cc1c(F)cccc1Cl)C(=O)c1ccccc1S2 | inactive: -8.07%
CC(=O)Nc1ccc(NC(=O)CCc2c(C)nc3c(c(C)nn3-c3ccccc3)c2C)cc1 | inactive: -15.6%
CCCCOc1ccc(C(=O)Nc2nc3c(s2)CC(C)CC3)cc1 (configuration not stated) | inactive: -8.35%
COC(=O)c1cccc(CN2C(=O)SC(Nc3ccc(Cl)cc3)C2=O)c1 (configuration not stated) | inactive: -5.65%
CCOC(=O)c1noc2ncnc(Nc3cccc(C(F)(F)F)c3)c12 | inactive: -16%
COc1ccc(Nc2c3c(nc4nncn24)CCC3)cc1Cl | inactive: -40.9%

SMILES | activation
Cc1ccc(NC(=O)COCc2cc(-c3cccs3)on2)cc1Cl | inactive: -30.1%
CCCCNS(=O)(=O)c1ccc2nc(-c3cccnc3)cc(C(=O)NCCCOCC)c2c1 | inactive: -5.16%
C[C@H]1c2cccc(O)c2C(O)=C2C(=O)[C@]3(O)C(O)=C(C(N)=O)C(=O)[C@@H](N(C)C)[C@@H]3[C@@H](O)[C@@H]21 | inactive: -14.5%
CCCCOC(=O)c1ccc(NC(=O)/C(C#N)=C/c2ccc(C)o2)cc1 | inactive: -9.87%
Cc1cccc(-n2c(SCC(=O)Nc3ccccc3C)nc3c(oc4ccccc43)c2=O)c1 | inactive: -6.46%
COC(=O)c1ccc(NC(=O)CN(c2cccc(C(F)(F)F)c2)S(C)(=O)=O)cc1 | inactive: -15.9%
CCc1ccccc1N1C(=O)N(C)c2ccccc2S1(=O)=O | inactive: 1.23%
Cc1[nH]c2ccccc2c1C(=O)C(=O)NC1CC(=O)N(c2ccccc2)C1 (configuration not stated) | inactive: -8.12%
CCOc1ccccc1CNC(=O)CCn1cccn1 | inactive: -6.17%
CSc1nn(Cc2ccc(F)cc2)c(N)c1S(=O)(=O)c1ccc(Cl)cc1 | inactive: -8.73%
COc1cccc(CSc2nc(-c3ccccc3OC)nc3c2Cc2c(CO)cnc(C)c2O3)c1 | inactive: -5.28%
CCOc1ccc(S(=O)(=O)N2CCN(c3ccc(C)cc3C)CC2)c2ccccc12 | inactive: -10.8%
CCCN(CCC)CCCNC(=O)C1CCN(S(=O)(=O)c2cccc3nsnc23)CC1 | inactive: -13.5%
Cc1ccc(C(=O)CC2(O)C(=O)N(Cc3ccccc3)c3ccc(Br)cc32)cc1 (configuration not stated) | inactive: -21.5%
CCN(C(=O)c1ccc2c(=O)n3c(nc2c1)CCCCC3)c1cc(C)ccc1C | inactive: -9.17%
O=C1COc2ccc(-c3cc(-c4ccc(F)cc4)c4c(n3)-c3ccccc3OC4)cc2N1 | inactive: -6.03%
CCCCCCCCCCCCCCCCO | inactive: -13.2%
COCc1cc(C)n(CC(=O)Nc2cccc(C(C)=O)c2)c(=O)c1C#N | inactive: -18.2%
Cc1ccc(-c2n[nH]c3c2C(c2cccs2)N(c2ccc(Cl)cc2)C3=O)cc1 (configuration not stated) | inactive: -13.3%
Cc1ccc(C)c(C(=O)CSc2nc3cc(C(=O)NC4CCCC4)ccc3c(=O)n2CC2CCCO2)c1 (configuration not stated) | inactive: -13.7%
CCOc1ccccc1C(=O)N1CCCCC1CCN1CCOCC1 (configuration not stated) | inactive: -11.3%
Cc1ccc(-c2nc3cc(NC(=O)c4cc(Br)ccc4Cl)ccc3o2)cc1 | inactive: -7.98%
CSc1cccc(NC(=O)CN(C)S(=O)(=O)c2ccc3c(c2)CCCN3C(C)=O)c1 | inactive: -7.02%
